pKi: −log10 of the molar value. *1 amine or outer side, *2 acyl side, *3 side chain or, on linkers, in order; H or OH if unused. Where a SMILES comes first, the peptide text is derived from it. [ ]: non-standard residue; d: D form. The star is where a group is joined. Pro(3R,4S-CMe2) = CC1(C)[C@@H]2[C@@H](C(=O)O)NC[C@@H]21; Pro(3S,4R-CMe2) = CC1(C)[C@H]2[C@@H](C(=O)O)NC[C@H]21; CF3C(Me)2OCO = CC(C)(OC(=O)*)C(F)(F)F; X8 = O=C(C(=O)[*:2])C(CC1CC1)N[*:1]; Gly(cPent) = N[C@H](C(=O)O)C1CCCC1; Phg = N[C@H](C(=O)O)c1ccccc1; Boc = CC(C)(C)OC(=O)*
biological target: HCV NS3/NS4A protease (strain 1a) (Hepatitis C virus genotype 1a, UniProt P27958); assay: biochemical; settings: Table 5; HCV NS3/NS4A protease, 30° C., pH 6.5; read-out: Ki* Range

Row | pKi | Structure (SMILES)
1 | 6.00 to 7.00 | CCCC(NC(=O)[C@@H]1C2C(CN1C(=O)C(NC(=O)OC(C)(C)C)C1CCCCC1)C2(C)C)C(=O)C(=O)NCC(N)=O (stereo partly drawn)

same assay, conditions: Table 5; HCV NS3/NS4A protease, spectrophotometric assay, 30° C., pH 6.5; read-out: Ki* Range

Row | pKi | Structure (SMILES)
2 | < 6.00 | COC(=O)C(=O)C(CC1CC1)NC(=O)[C@@H]1[C@@H]2[C@H](CN1C(=O)CC(C)(C)C)C2(C)C (stereo partly drawn)
3 | 7.00 to 9.00 | CC(C)OC(=O)N[C@H](C(=O)N1CC2C([C@H]1C(=O)NC(CC1CCC1)C(=O)C(N)=O)C2(C)C)C1CCCCC1 (stereo partly drawn)
4 | 7.00 to 9.00 | CN(C)C(=O)[C@@H](NC(=O)CNC(=O)C(=O)C(CC1CCC1)NC(=O)[C@@H]1C2C(CN1C(=O)[C@@H](NC(=O)OC(C)(C)C)C1CCCCC1)C2(C)C)c1ccccc1 (stereo partly drawn)
5 | < 6.00 | CCCC(NC(=O)C1CC(C)(C)CN1C(=O)[C@@H](NC(=O)OC(C)(C)C)C(C)(C)C)C(=O)C(=O)NCC(=O)NCc1ccccc1 (stereo partly drawn)
6 | 7.00 to 9.00 | CC(C)(C)OC(=O)N[C@H](C(=O)N1C[C@@H]2[C@H]([C@H]1C(=O)NC(CC1CCC1)C(=O)C(N)=O)C2(C)C)C(C)(C)C (stereo partly drawn)
7 | < 6.00 | COC(=O)C(=O)C(CC(C)(C)C)NC(=O)[C@@H]1[C@@H]2[C@H](CN1C(=O)[C@@H](NC(=O)OC(C)(C)C)C(C)(C)C)C2(C)C (stereo partly drawn)
8 | < 6.00 | CCCNC(=O)CNC(=O)C(=O)C(CCC)NC(=O)[C@@H]1[C@@H]2[C@H](CN1C(=O)[C@@H](NC(=O)OC(C)(C)C)C(C)(C)C)C2(C)C (stereo partly drawn)
9 | < 6.00 | C=CCNC(=O)C(=O)C(CCC)NC(=O)[C@@H]1[C@@H]2[C@H](CN1C(=O)[C@H](C(C)C)N(C)C(=O)OC(C)(C)C)C2(C)C (stereo partly drawn)
10 | < 6.00 | C#CCNC(=O)C(=O)C(CCC)NC(=O)[C@@H]1[C@@H]2[C@H](CN1C(=O)[C@@H](NC(=O)OC(C)(C)C)C(C)(C)C)C2(C)C (stereo partly drawn)
11 | < 6.00 | CCCCCCCCCCCCNC(=O)N[C@H](C(=O)N1C[C@H]2[C@@H]([C@H]1C(=O)NC(CCC)C(=O)C(N)=O)C2(C)C)C(C)(C)C (stereo partly drawn)
12 | < 6.00 | CCCC[C@H](NC(=O)[C@@H]1[C@H]2[C@@H]3CC[C@@H](C3)[C@H]2CN1C(=O)[C@@H](NC(=O)OCC(C)C)C(C)(C)C)C(=O)C(=O)NCC(=O)NC(C(=O)N(C)C)c1ccccc1 (stereo partly drawn)
13 | 6.00 to 7.00 | COC(=O)N[C@H](C(=O)N1C[C@H]2[C@@H]([C@H]1C(=O)NC(CC1CC1)C(=O)C(N)=O)C2(C)C)C1CCCCC1 (stereo partly drawn)

Row | Structure (SMILES) | pKi
14 | CN(C)C(=O)[C@@H](NC(=O)CNC(=O)C(=O)C(CC1CC1)NC(=O)[C@@H]1[C@H]2[C@@H](CN1C(=O)[C@@H](NC(=O)OC(C)(C)C)C1CCCC1)C2(C)C)c1ccccc1 (stereo partly drawn) (Boc-[Gly(cPent)][Pro(3S,4R-CMe2)][X8]G[Phg]-NMe2) | 7.00 to 9.00

same assay, conditions: Table 6; HCV NS3/NS4A protease, 30° C., pH 6.5; read-out: Ki*

Row | pKi | Structure (SMILES)
15 | 6.00 to 7.00 | CNC(=O)C(=O)C(CC1CC1)NC(=O)[C@@H]1[C@@H]2[C@H](CN1C(=O)[C@@H](NC(=O)NC(C)(C)C)C1Cc3ccccc3C1)C2(C)C (stereo partly drawn)
16 | 7.00 to 9.00 | C=CCCC(NC(=O)[C@@H]1[C@@H]2[C@H](CN1C(=O)[C@@H](NC(=O)NC(C)(C)C)C(C)(C)C)C2(C)C)C(=O)C(=O)NCCS(=O)(=O)c1ccccc1 (stereo partly drawn)
17 | 7.00 to 9.00 | CCCC(NC(=O)[C@@H]1[C@H]2[C@@H](CN1C(=O)[C@@H](NC(=O)NC(C)(C)C)C(C)(C)C)C2(C)C)C(=O)C(=O)NCC(=O)NCc1ccccc1 (stereo partly drawn)
18 | 6.00 to 7.00 | CC(C)(C)OC(=O)N[C@H](C(=O)N1C[C@H]2[C@@H]([C@H]1C(=O)NC(CC1CCC1)C(=O)C(=O)NC1CC1)C2(Cl)Cl)C(C)(C)C (stereo partly drawn)
19 | 7.00 to 9.00 | CN(C)C(=O)[C@@H](NC(=O)CNC(=O)C(=O)C(CC1CC1)NC(=O)[C@@H]1[C@H]2CC(C)(C)O[C@H]2CN1C(=O)[C@@H](NC(=O)OC(C)(C)C)C1CCCCC1)c1ccc(Br)cc1 (stereo partly drawn)
20 | 6.00 to 7.00 | Cc1ccc(S(=O)(=O)CNC(=O)C(=O)C(CC2CCC2)NC(=O)[C@@H]2[C@@H]3[C@H](CN2C(=O)[C@@H](NC(=O)OC(C)(C)C)C2CCCCC2)C3(C)C)cc1 (stereo partly drawn)
21 | 7.00 to 9.00 | CC(C)(CF)NC(=O)N[C@H](C(=O)N1C[C@H]2[C@@H]([C@H]1C(=O)NC(CC1CC1)C(=O)C(=O)NCC(=O)NCc1ccccc1)C2(C)C)C(C)(C)C (stereo partly drawn)
22 | 6.00 to 7.00 | CN(C)C(=O)[C@@H](NC(=O)CNC(=O)C(=O)[C@@H](CC1CCC1)NC(=O)[C@@H]1[C@H]2CC3(CC3)C[C@H]2CN1C(=O)[C@@H](NC(=O)OC(C)(C)C)C(C)(C)C)c1ccccc1
23 | 7.00 to 9.00 | CC(C)(C)OC(=O)N[C@H](C(=O)N1C[C@H]2[C@@H]([C@H]1C(=O)NC(CC1CC1)C(=O)C(=O)NCC(=O)NCc1ccccc1)C2(Cl)Cl)C1CCCCC1 (stereo partly drawn)

Row | Structure (SMILES) | pKi
24 | CC(C)[C@H](NC(=O)OC(C)(C)C(F)(F)F)C(=O)N1C[C@H]2[C@@H]([C@H]1C(=O)NC(CC1CC1)C(=O)C(=O)NCC(=O)N[C@H](C(=O)N(C)C)c1ccccc1)C2(C)C (stereo partly drawn) ({CF3C(Me)2OCO}-V[Pro(3R,4S-CMe2)][X8]G[Phg]-NMe2) | 7.00 to 9.00

From patent publication US7592316B2, “Peptides as NS3-serine protease inhibitors of hepatitis C virus” (Schering Corporation, priority 2000, dated 2009)
